M. abscessus ATCC 19977 and its deletion, point and complemented mutants after 5 days of drug at 37 °C plus 24 h of resazurin. Growth in % of untreated wells at the dose given (lower = more inhibition); checkerboards give % inhibition (higher = more inhibition); IC50 from the fitted curve (lower = more potent). No active / inactive call. IC50 values come from the same 384-well curves. Growth is not capped and can exceed 100%. The direction of the checkerboard scale is read from the raw signals. Capreomycin is a mixture.
Columns and labels:
[1] = tested on: Mycobacterium abscessus ATCC 19977; assay: growth inhibition; higher = more inhibition
Procedure: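 384-well checkerboard, three replicates; 5 days at 37 °C, then 24 h with resazurin; fluorescence scaled to growth and killed controls.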

[2] = tested on: Mycobacterium abscessus ATCC 19977 ΔwhiB7; assay: growth relative to untreated wells; higher = more growth (less inhibition)
Procedure: (§1)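 384-well two-fold dose series, two replicates; 5 days at 37 °C, then 24 h with resazurin; fluorescence scaled to growth and killed controls.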

[3] = tested on: Mycobacterium abscessus ATCC 19977 WhiB7 R76del; assay: as above
Procedure: as §1

[4] = tested on: Mycobacterium abscessus ATCC 19977; assay: as above
Procedure: as §1

[5] = tested on: Mycobacterium abscessus ATCC 19977 Eis2 T258R; assay: as above
Procedure: as §1

[6] = tested on: Mycobacterium abscessus ATCC 19977 ΔwhiB7; assay: growth relative to untreated wells; higher = more growth
Procedure: (§2)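 Two-fold dose series, three replicates; 5 days at 37 °C, then 24 h with resazurin; fluorescence scaled to growth and killed controls.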

[7] = tested on: Mycobacterium abscessus ATCC 19977; assay: as above
Procedure: as §2

[8] = tested on: Mycobacterium abscessus ATCC 19977 Δcat; assay: as above
Procedure: as §2

CS(=O)(=O)c1ccc([C@@H](O)[C@H](N)CF)cc1 [florfenicol amine] + CC[C@H]1OC(=O)[C@H](C)[C@@H](O[C@H]2C[C@@](C)(OC)[C@@H](O)[C@H](C)O2)[C@H](C)[C@@H](O[C@@H]2O[C@H](C)C[C@H](N(C)C)[C@H]2O)[C@](C)(OC)C[C@@H](C)C(=O)[C@H](C)[C@@H](O)[C@]1(C)O [Clarithromycin]
growth inhibition [%], [1]
Details | partner concentration 0.003906 µg/mL | partner concentration 0.007812 µg/mL | partner concentration 0.01562 µg/mL | partner concentration 0.03125 µg/mL | partner concentration 0.0625 µg/mL | partner concentration 0.125 µg/mL | partner concentration 0.25 µg/mL | partner concentration 0.5 µg/mL | partner concentration 1 µg/mL | partner concentration 2 µg/mL
0.241504 µg/mL | 17.7 | 8.89 | -8.91 | -19.8 | -11 | 69.1 | 98.27 | 101.7 | 103.3 | 103.4
0.483008 µg/mL | 11.4 | 4.1 | -9.12 | -15 | 5.26 | 80.4 | 98 | 102.6 | 103.57 | 103.7
0.966016 µg/mL | -17.1 | -19.2 | -24.4 | -22.8 | 11.7 | 83.3 | 96.9 | 101.4 | 102.9 | 103.2
1.93203 µg/mL | -17.8 | -16 | -13.2 | -7.81 | 49.8 | 95.34 | 98.5 | 102.4 | 103.52 | 103.7
3.86406 µg/mL | -11.6 | -7.39 | -5.44 | 15 | 70.6 | 99.3 | 101.2 | 98.9 | 104.2 | 103
7.72813 µg/mL | -6.88 | 10.7 | 31.7 | 55.8 | 95.28 | 101.6 | 99.9 | 103.92 | 104.41 | 104.47
15.4563 µg/mL | 72.4 | 84.5 | 87.2 | 92.48 | 99.21 | 103.5 | 103 | 104.5 | 104.68 | 104.8
30.9125 µg/mL | 90.87 | 92.02 | 93.65 | 97.07 | 102.8 | 104.8 | 104.8 | 104.7 | 104.9 | 105.1
61.825 µg/mL | 95.22 | 93.72 | 95.9 | 100.7 | 104.6 | 105.2 | 102 | 104.5 | 104.4 | 104.6
123.65 µg/mL | 100 | 101 | 102.8 | 103.9 | 104.5 | 104.6 | 103.9 | 103.9 | 103.7 | 103.8

CS(=O)(=O)c1ccc([C@@H](O)[C@@H](CF)NC(=O)C(Cl)Cl)cc1 [florfenicol]
growth [%]
Details | [2] | [3] | [4] | [5] | [6] | [7] | [8]
0.5 µg/mL | 97.5 | 102 | 96.7 | 95.2 | – | – | –
1 µg/mL | 102 | 106 | 105 | 102.1 | 95.2 | 97 | 86.1
2 µg/mL | 106 | 100.3 | 111 | 92.1 | 102 | 105 | 94.4
4 µg/mL | 118 | 116 | 110 | 109 | 99.6 | 100 | 90.5
8 µg/mL | 122 | 118 | 115 | 113 | 104 | 94 | 84.8
16 µg/mL | 118 | 104 | 70 | 67.1 | 101 | 84.6 | 80.5
32 µg/mL | 68.14 | 35.6 | 21.8 | 6.57 | 94.4 | 53.4 | 63
64 µg/mL | 26.2 | 8.92 | 0.239 | -0.123 | 73 | 3.19 | 28.9
128 µg/mL | 8.54 | 1.6 | -1.22 | -2.29 | 8.69 | -3.6 | -0.197
256 µg/mL | -2.06 | -2.08 | 0.115 | -2.22 | 10.2 | -2.96 | -3.01
512 µg/mL | -3.67 | -2.04 | -1.6 | -2.28 | 9.08 | 2.87 | -0.942
1024 µg/mL | -4.23 | -1.87 | -1.14 | -2.19 | – | – | –

CNC1CC(N)C(O)C(OC2OC(CO)C(O)C3OC4(OC(C(N)CO)C(O)C(O)C4O)OC23)C1O (centres undefined) [hygromycin B]
growth [%]
Details | [2] | [3] | [4] | [5]
0.5 µg/mL | 112 | 111.5 | 110 | 107.5
1 µg/mL | 113 | 115 | 114 | 116
2 µg/mL | 112 | 113 | 112.6 | 106.31
4 µg/mL | 148 | 117.5 | 116.1 | 113
8 µg/mL | 9.1 | 52.4 | 112.6 | 129
16 µg/mL | -2.4 | -0.305 | 117 | 11.2
32 µg/mL | -2.93 | 3.21 | 122 | -0.755
64 µg/mL | -3.54 | 2.97 | 131 | -1.78
128 µg/mL | -3.95 | -1.6 | 40.8 | 0.817
256 µg/mL | -2.8 | -1.1 | 4.38 | -1.65
512 µg/mL | -2.94 | -0.788 | 0.201 | -1.38
1024 µg/mL | -1.98 | 0.494 | 0.803 | -0.853

NC[C@H]1O[C@H](O[C@H]2[C@H](O)[C@@H](O[C@H]3O[C@H](CO)[C@@H](O)[C@H](N)[C@H]3O)[C@H](N)C[C@@H]2N)[C@H](O)[C@@H](O)[C@@H]1O [kanamycin A]
growth [%]
Details | [2] | [3] | [4] | [5]
0.03125 µg/mL | 117 | 113 | 113 | 111
0.0625 µg/mL | 126 | 123 | 122 | 120
0.125 µg/mL | 157 | 127 | 122 | 119
0.25 µg/mL | 97.2 | 132 | 131 | 127
0.5 µg/mL | -1.57 | 0.301 | 129 | 12.3
1 µg/mL | -2.71 | -0.894 | 26.2 | -0.964
2 µg/mL | -2.61 | 0.0977 | -0.192 | -1.37
4 µg/mL | -3.06 | -1.09 | 5.65 | -2.28
8 µg/mL | -3.21 | -1.21 | 3.17 | -2.09
16 µg/mL | -2.75 | -0.958 | -0.433 | -1.39
32 µg/mL | -2.44 | -0.591 | -0.0013 | -1.01
64 µg/mL | -1.35 | 0.59 | 1.13 | 0.0577

Source: the supplement of paper PMC12578646, “Prodrug florfenicol amine is activated by intrinsic resistance to target Mycobacterium abscessus” (Nature Microbiology, 2025)
